Consider 97 variants from a collection of fitness landscapes (doi:10.1016/j.celrep.2020.107928).

In all, about 81,000 sequences were measured (“one-hybrid fitness for binding NBS DNA”: median about -0.1, highest 2% from about 0.36 on). This is one part of the list. Bounds are passed on as bounds.

Sequences and labels used below:
B1: Caulobacter ParB omega fusion; a variant is named by its letters at X, in order, B8GW30 (parent)
chain: MESVVVGEPGMSEGRRGLGRGLSALLGEVDAAPAQAPGEQLGGSREAPIEILQRNPDQPRRTFREEDLEDLSNSIREKGVLQPILVRPSPDTAGEYQIVAGERAWRAAQRAGLKTVPIMVRELDDLAVLEIGIIENVQRADLNVLEEALSYKVLMEKFERTQENIAQTIGKSXSHVANXMRLLXLPDEVQSYLVSGELTAXHARAIAAAADPVALAKQIIEGGLSVRETEALARKAPNLSAGKSKGGRPPRVKDTDTQALESDLSSVLGLDVSIDHRGSTGTLTITYATLEQLDDLCNRLTRGI

Variants of B1 are the subject of the experiment. In words: one-hybrid fitness for binding NBS DNA (the Noc-binding site; scaled: cognate 1, non-cognate 0); higher = stronger binding. The note with it: with NBS DNA site. In a few lines: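 The reporter was HIS3, with the binding site 19 bp from the promoter, in E. coli USO used for bacterial one-hybrid selection of Caulobacter ParB libraries with four specificity codons randomised. Growth was on M9 lacking histidine, with 0.1 mM IPTG and 5 mM 3-AT, for 48 hours at 37°C. Illumina sequencing covered plasmids before and after selection; three replicate libraries were pooled and variants with under 10 reads dropped. A fitness score is the log change in variant-to-wild-type read ratio, rescaled to the cognate and non-cognate references.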
As for NIAS, the “one-hybrid fitness for binding NBS DNA” value was ≤ 0.2.

PQVV: the “one-hybrid fitness for binding NBS DNA” value is ≤ 0.2.

In the case of PNAL, the “one-hybrid fitness for binding NBS DNA” value was ≤ 0.2.

LTPF: the “one-hybrid fitness for binding NBS DNA” value is ≤ 0.2.

With NNKG, the “one-hybrid fitness for binding NBS DNA” value was ≤ 0.2.

Consider FHKW, for which the “one-hybrid fitness for binding NBS DNA” value was ≤ 0.2.

As to QQNQ, the “one-hybrid fitness for binding NBS DNA” value is 0.242.

QIGE: the “one-hybrid fitness for binding NBS DNA” value is ≤ 0.2.

With TCAY, the “one-hybrid fitness for binding NBS DNA” value was ≤ 0.2.

In the case of QDSY, the “one-hybrid fitness for binding NBS DNA” value was ≤ 0.2.

As for QDKV, the “one-hybrid fitness for binding NBS DNA” value is ≤ 0.2.

Regarding ISLP, the “one-hybrid fitness for binding NBS DNA” value is ≤ 0.2.

Take LGMH: the “one-hybrid fitness for binding NBS DNA” value was ≤ 0.2.

For the variant WRKE, the “one-hybrid fitness for binding NBS DNA” value was ≤ 0.2.

Consider SYSG, for which the “one-hybrid fitness for binding NBS DNA” value was ≤ 0.2.

For the variant QFPE, the “one-hybrid fitness for binding NBS DNA” value is ≤ 0.2.

In the case of QDWG, the “one-hybrid fitness for binding NBS DNA” value is ≤ 0.2.

QLRD: the “one-hybrid fitness for binding NBS DNA” value is ≤ 0.2.

Take LWAR: the “one-hybrid fitness for binding NBS DNA” value is ≤ 0.2.

Regarding GPNV, the “one-hybrid fitness for binding NBS DNA” value was ≤ 0.2.

WHEG: the “one-hybrid fitness for binding NBS DNA” value is ≤ 0.2.

For the variant NQYG, the “one-hybrid fitness for binding NBS DNA” value is ≤ 0.2.

Regarding TLVR, the “one-hybrid fitness for binding NBS DNA” value is ≤ 0.2.

Consider EGVR, for which the “one-hybrid fitness for binding NBS DNA” value is ≤ 0.2.

In the case of LVTD, the “one-hybrid fitness for binding NBS DNA” value is ≤ 0.2.

Regarding YSKQ, the “one-hybrid fitness for binding NBS DNA” value was ≤ 0.2.

On to QCTM, for which the “one-hybrid fitness for binding NBS DNA” value was ≤ 0.2.

QTFE: the “one-hybrid fitness for binding NBS DNA” value is ≤ 0.2.

For the variant RCIW, the “one-hybrid fitness for binding NBS DNA” value is ≤ 0.2.

For RSLC, the “one-hybrid fitness for binding NBS DNA” value is ≤ 0.2.

For the variant GQLW, the “one-hybrid fitness for binding NBS DNA” value is ≤ 0.2.

As to NATQ, the “one-hybrid fitness for binding NBS DNA” value is ≤ 0.2.

In the case of IDPL, the “one-hybrid fitness for binding NBS DNA” value was ≤ 0.2.

Consider RCRE, for which the “one-hybrid fitness for binding NBS DNA” value is ≤ 0.2.

For QSTR, the “one-hybrid fitness for binding NBS DNA” value came to 0.531.

Regarding RHLT, the “one-hybrid fitness for binding NBS DNA” value came out at 0.33.

In the case of QTAP, the “one-hybrid fitness for binding NBS DNA” value was ≤ 0.2.

Consider LNYG, for which the “one-hybrid fitness for binding NBS DNA” value was ≤ 0.2.

In the case of FLRT, the “one-hybrid fitness for binding NBS DNA” value was ≤ 0.2.

For the variant EYFS, the “one-hybrid fitness for binding NBS DNA” value was ≤ 0.2.

In the case of YGLY, the “one-hybrid fitness for binding NBS DNA” value was ≤ 0.2.

In the case of ETSQ, the “one-hybrid fitness for binding NBS DNA” value is ≤ 0.2.

As for SIIC, the “one-hybrid fitness for binding NBS DNA” value was ≤ 0.2.

On to DAPC, for which the “one-hybrid fitness for binding NBS DNA” value was ≤ 0.2.

As to PRLP, the “one-hybrid fitness for binding NBS DNA” value was ≤ 0.2.

As for MVLH, the “one-hybrid fitness for binding NBS DNA” value was ≤ 0.2.

In the case of RRNA, the “one-hybrid fitness for binding NBS DNA” value was found to be 0.679.

Turning to AVVM, the “one-hybrid fitness for binding NBS DNA” value is ≤ 0.2.

Turning to TYSY, the “one-hybrid fitness for binding NBS DNA” value was ≤ 0.2.

As for MKKW, the “one-hybrid fitness for binding NBS DNA” value is ≤ 0.2.

For LPVR, the “one-hybrid fitness for binding NBS DNA” value was ≤ 0.2.

For the variant PDEH, the “one-hybrid fitness for binding NBS DNA” value was ≤ 0.2.

HFYT: the “one-hybrid fitness for binding NBS DNA” value was ≤ 0.2.

Take GGMG: the “one-hybrid fitness for binding NBS DNA” value was ≤ 0.2.

Take QVKA: the “one-hybrid fitness for binding NBS DNA” value came out at 0.345.

In the case of IVPT, the “one-hybrid fitness for binding NBS DNA” value is ≤ 0.2.

With ATSL, the “one-hybrid fitness for binding NBS DNA” value is ≤ 0.2.

PEGG: the “one-hybrid fitness for binding NBS DNA” value is ≤ 0.2.

With NGNS, the “one-hybrid fitness for binding NBS DNA” value was ≤ 0.2.

Consider IVEC, for which the “one-hybrid fitness for binding NBS DNA” value is ≤ 0.2.

ATAI: the “one-hybrid fitness for binding NBS DNA” value was ≤ 0.2.

Consider SPAR, for which the “one-hybrid fitness for binding NBS DNA” value was ≤ 0.2.

Regarding AAVW, the “one-hybrid fitness for binding NBS DNA” value is ≤ 0.2.

For the variant QQQK, the “one-hybrid fitness for binding NBS DNA” value is ≤ 0.2.

With KREK, the “one-hybrid fitness for binding NBS DNA” value was ≤ 0.2.

As for PNVC, the “one-hybrid fitness for binding NBS DNA” value is ≤ 0.2.

Consider RICH, for which the “one-hybrid fitness for binding NBS DNA” value is ≤ 0.2.

As for RDSV, the “one-hybrid fitness for binding NBS DNA” value is ≤ 0.2.

Regarding RCGI, the “one-hybrid fitness for binding NBS DNA” value was ≤ 0.2.

On to TMLG, for which the “one-hybrid fitness for binding NBS DNA” value is ≤ 0.2.

Consider VCLV, for which the “one-hybrid fitness for binding NBS DNA” value was ≤ 0.2.

Regarding PNDN, the “one-hybrid fitness for binding NBS DNA” value is ≤ 0.2.

As to PRKS, the “one-hybrid fitness for binding NBS DNA” value is ≤ 0.2.

With IMAM, the “one-hybrid fitness for binding NBS DNA” value was ≤ 0.2.

Turning to QLQQ, the “one-hybrid fitness for binding NBS DNA” value is ≤ 0.2.

Take ICGY: the “one-hybrid fitness for binding NBS DNA” value is ≤ 0.2.

On to GIRG, for which the “one-hybrid fitness for binding NBS DNA” value is ≤ 0.2.

For the variant TAGC, the “one-hybrid fitness for binding NBS DNA” value is ≤ 0.2.

Turning to MWRR, the “one-hybrid fitness for binding NBS DNA” value is ≤ 0.2.

For LLNI, the “one-hybrid fitness for binding NBS DNA” value was ≤ 0.2.

For QLQW, the “one-hybrid fitness for binding NBS DNA” value is ≤ 0.2.

In the case of NPER, the “one-hybrid fitness for binding NBS DNA” value is ≤ 0.2.

With ADKY, the “one-hybrid fitness for binding NBS DNA” value was ≤ 0.2.

Consider SPTW, for which the “one-hybrid fitness for binding NBS DNA” value was ≤ 0.2.

Turning to ASWV, the “one-hybrid fitness for binding NBS DNA” value is ≤ 0.2.

In the case of LHEV, the “one-hybrid fitness for binding NBS DNA” value was ≤ 0.2.

For CNGV, the “one-hybrid fitness for binding NBS DNA” value is ≤ 0.2.

As to RTLP, the “one-hybrid fitness for binding NBS DNA” value was ≤ 0.2.

Consider HYWS, for which the “one-hybrid fitness for binding NBS DNA” value is ≤ 0.2.

Turning to VVRA, the “one-hybrid fitness for binding NBS DNA” value was ≤ 0.2.

Regarding YLAW, the “one-hybrid fitness for binding NBS DNA” value is ≤ 0.2.

With QCRL, the “one-hybrid fitness for binding NBS DNA” value is 0.401.

Regarding QSQT, the “one-hybrid fitness for binding NBS DNA” value was found to be 0.411.

Regarding VFTY, the “one-hybrid fitness for binding NBS DNA” value is ≤ 0.2.

Regarding QYMM, the “one-hybrid fitness for binding NBS DNA” value was ≤ 0.2.

Take SIGM: the “one-hybrid fitness for binding NBS DNA” value was ≤ 0.2.

SPKV: the “one-hybrid fitness for binding NBS DNA” value is ≤ 0.2.
